From paper PMC4336329 (PLoS ONE, 2015)
Screen size: about 310,000 compounds; about 2,200 (0.71%) showed an effect of 50% or more. The effect is printed as a negative number. Some of the results follow.

Target: human ether-à-go-go-related gene (hERG) potassium channel (human, UniProt Q12809)
Assay: primary screen, population patch clamp on CHO cells stably expressing hERG

human ether-à-go-go-related gene (hERG) potassium channel, sequence (Q12809 whole entry, looked up): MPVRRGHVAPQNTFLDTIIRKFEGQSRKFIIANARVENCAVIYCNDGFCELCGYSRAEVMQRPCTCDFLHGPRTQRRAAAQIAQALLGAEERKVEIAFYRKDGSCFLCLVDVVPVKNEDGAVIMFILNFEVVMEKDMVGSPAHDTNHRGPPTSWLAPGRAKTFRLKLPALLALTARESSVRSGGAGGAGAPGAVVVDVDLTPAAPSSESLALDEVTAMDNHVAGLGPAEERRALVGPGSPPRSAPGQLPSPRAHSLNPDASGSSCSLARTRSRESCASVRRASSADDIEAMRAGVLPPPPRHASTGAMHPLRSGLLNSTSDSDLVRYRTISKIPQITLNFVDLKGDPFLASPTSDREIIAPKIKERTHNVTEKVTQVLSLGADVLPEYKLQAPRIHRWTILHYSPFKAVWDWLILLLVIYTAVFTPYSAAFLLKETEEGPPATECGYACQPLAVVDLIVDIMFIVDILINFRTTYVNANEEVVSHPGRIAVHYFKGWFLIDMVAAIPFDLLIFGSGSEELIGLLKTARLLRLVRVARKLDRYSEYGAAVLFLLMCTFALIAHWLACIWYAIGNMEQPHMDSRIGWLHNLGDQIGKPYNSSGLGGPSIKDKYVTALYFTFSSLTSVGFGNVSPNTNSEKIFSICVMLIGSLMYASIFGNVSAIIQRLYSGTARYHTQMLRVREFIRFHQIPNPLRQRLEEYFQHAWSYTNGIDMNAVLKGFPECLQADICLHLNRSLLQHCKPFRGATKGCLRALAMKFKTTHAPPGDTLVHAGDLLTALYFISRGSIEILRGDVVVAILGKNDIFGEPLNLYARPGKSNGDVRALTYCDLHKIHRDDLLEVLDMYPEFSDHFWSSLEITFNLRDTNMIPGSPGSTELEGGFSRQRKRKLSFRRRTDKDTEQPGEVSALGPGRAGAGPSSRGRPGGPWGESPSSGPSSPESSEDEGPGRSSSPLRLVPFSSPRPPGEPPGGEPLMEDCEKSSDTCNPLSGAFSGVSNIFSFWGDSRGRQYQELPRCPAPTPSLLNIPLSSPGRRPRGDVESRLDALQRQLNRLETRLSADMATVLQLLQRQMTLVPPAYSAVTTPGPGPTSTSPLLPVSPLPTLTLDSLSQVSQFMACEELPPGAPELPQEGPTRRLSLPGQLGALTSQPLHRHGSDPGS

Row | SMILES | hERG current change (%, negative = inhibition) at 1uM [%]
1 | COc1ccc(/C=C(/NC(=O)c2ccccc2)C(=O)N/N=C/c2ccncc2)cc1 | 11.6
2 | O=C(Nc1ccc(Br)cc1)C1CC(O)CN1C(=O)OCc1ccccc1 (centres unmarked) | 6.24
3 | Cc1ccc(S(=O)(=O)N2CCN(C(=O)c3cc(=O)[nH]c4ccccc34)CC2)c(C)c1 | -2.77
4 | O=C(CCc1nc2ccccc2c(=O)[nH]1)OCc1ccc(Cl)cc1Cl | 6.48
5 | COc1cccc(NC(=O)COc2ccc(S(=O)(=O)NC(C)C)cc2)c1 | 9.42
6 | CNC(=O)C1CCN(S(=O)(=O)c2c(C)noc2/C=C/c2ccccc2F)CC1 | 12.9
7 | FC(F)Oc1ccc(C2N=C(c3ccccc3)NO2)cc1 (centres unmarked) | 12.2
8 | COc1ccc(N(C)S(=O)(=O)c2cccc(C(=O)Nc3nnc(C)s3)c2)cc1 | 10.2
9 | Brc1ccc2c(c1)OCCOCCOCCOCCOCCOCCO2 | -60
10 | CC1CC(C)CN(C(=O)c2nn(C)c3c2CS(=O)(=O)c2ccccc2-3)C1 (centres unmarked) | 2.63
11 | O=C(Cn1c(=O)sc2ccccc21)NCCOc1ccccc1F | 3
12 | Cc1ccc(-c2n[nH]c(=S)n2/N=C/c2cccn2C)cc1 | 18.7
13 | COc1ccccc1CNC(=O)c1cc(=O)c2ccccc2o1 | 8.85
14 | O=c1cnc2ccccc2n1Cc1ccccc1C(F)(F)F | 22.7
15 | Cc1cc(C2=NNC(=NC3CCCCC3)SC2)c(C)n1-c1c(C)n(C)n(-c2ccccc2)c1=O | 14.6
16 | Nc1c(C(=O)NC2CCCC2)c2nc3ccccc3nc2n1/N=C/c1cccnc1 | 4.84
17 | CC/C(=N\N=C1\SC(C)C(=O)N1Cc1ccco1)c1ccccc1 (centres unmarked) | 8.78
18 | Cc1cc(C(F)(F)F)n(-c2nc(C(=O)NNS(=O)(=O)c3ccccc3[N+](=O)[O-])cs2)n1 | 8.87
19 | c1csc(-c2nc3c4ccccc4c4ccccc4c3[nH]2)c1 | 15.8
20 | COc1ccccc1/C=C1\N=C(C(C)(C)C)OC1=O | 11.9
21 | Cc1nc2sc(C(c3ccccc3)N3CCN(C)CC3)c(O)n2n1 (centres unmarked) | 4.53
22 | CC(C)(C)c1ccc(C(=O)NNc2cc(N3CCOCC3)nc(N3CCOCC3)n2)cc1 | -0.236
23 | O=C(/C=C/c1ccccc1Cl)NCc1ccco1 | -10.3

Row | SMILES | hERG current change (%, negative = inhibition) at 1uM [%]
24 | Cc1cccc(C)c1-n1c(SCC(=O)Nc2ccc(C(=O)O)cc2)nnc1-c1cccc(S(=O)(=O)N(C)C)c1 | 7.98
25 | Clc1ccc(CSc2nnc(-c3sccc3-n3cccc3)o2)cc1 | 1.6
26 | CC/C(C)=N/Nc1cccc([N+](=O)[O-])c1 | 16.9
27 | CN(C)c1ccc(C(=S)NC2CCCCC2)cc1 | 18.4
28 | O=c1[nH]c(=O)n(-c2ccccc2)c(O)c1/C=C/C=Nc1ccccc1 | 14.5
29 | O=C(O)C(Cc1ccccc1)N1CCS(=O)(=O)CC1 (centres unmarked) | 11.4
30 | O=C(O)c1ccccc1-n1cnnn1 | -5.96
31 | CC(C)Cc1nnc(NC(=O)CCC(=O)N2CCN(S(=O)(=O)c3ccccc3)CC2)s1 | 13
32 | Cc1nc(-c2coc3cc(C)c(N=O)c(O)c3/c2=N\N)cs1 | 5.84
33 | CC1=CC(C)C(C(=O)O)C(C(=O)N2CCN(C)CC2)C1 (centres unmarked) | 12.5
34 | CCOc1ccc(C(=O)Nc2cccc(C(=O)O)c2)cc1Cl | 9.1
35 | CCOc1c2ccc(C(=O)N[C@H](C)C3CCCCC3)cc2nn1CC | -2.69
36 | CC1CCCN(CC(O)CN)C1 (centres unmarked) | 16.7
37 | O=C1c2cccc(OCC(=O)N3CCCc4ccccc43)c2CCN1Cc1ccc(Br)cc1 | 16.2
38 | CC(C)(C)c1nnc2sc(SCC(=O)c3ccccc3)nn2c1=O | 2.57
39 | O=C(CSc1ccc2nnc(CCNC(=O)c3ccccc3)n2n1)Nc1ccccc1 | 6.2
40 | COc1ccc(-c2nc(C#N)c(N3CCOCC3)o2)cc1OC | -3.83
41 | O=C(c1cc(-c2ccccc2)nn1-c1ccccc1)N1CCN(S(=O)(=O)c2ccc(F)cc2)CC1 | 10.9
42 | CC(=O)N(CCC1(C(C)C)CCOC(C)(C)C1)Cc1ccco1 (centres unmarked) | -5.37
43 | COc1ccc(C(=O)N/C(=C\c2ccccc2)C(=O)NC(CC(C)C)C(=O)O)cc1 (centres unmarked) | 21.4
44 | NNC(=O)c1cc(-c2ccco2)[nH]n1 | 5.83
45 | COc1ccccc1CC(=O)NCc1ccc2c(c1)OCO2 | 17.2
46 | CN1CCN(S(=O)(=O)c2ccc([N+](=O)[O-])cc2)CC1 | 2.19

Row | SMILES | hERG current change (%, negative = inhibition) at 1uM [%]
47 | O=C1CC(N2CCN(Cc3ccccc3)CC2)C(=O)N1CCc1ccccc1 (centres unmarked) | -16.8
48 | Cn1nccc1/C=N\NC(=O)c1ccc(Cl)cc1 | 9.89
49 | CCOC(=O)c1c(C)[nH]c(C=O)c1Cc1cccc(Cl)c1 | 12.1
50 | COc1ccc(Cl)cc1NC(=O)CN(C)CC(=O)Nc1ccc(C)cc1Br | 10.2
51 | CC(=O)c1cccc(N(C(=O)CNC(=O)c2ccco2)C(C(=O)NC2CCCC2)c2ccncc2)c1 (centres unmarked) | 6.49
52 | C=CCOC(=O)C1=C[C@H](c2ccc(Br)cc2)[C@@H](CCCO)[C@H](OCC)O1 | -10.3
53 | CC(=O)c1cc(C#N)c(NCCCN(C)C)nc1C | 17.7
54 | CC(=O)N1CCN(Cc2ccc(Cl)nc2)CC1 | 17.3
55 | Cc1ccccc1NC(=O)c1cc[n+]([O-])cc1 | 16.6
56 | CC(C)C[C@H](N)c1nnc(S(=O)(=O)Cc2cccc(F)c2)o1.Cl | 6.01
57 | Cc1cc(C)c(S(=O)(=O)Nc2nnc(C)s2)c(C)c1 | -1.1
58 | CN1CCN(C(=O)/C(=C/c2cccc([N+](=O)[O-])c2)NC(=O)c2ccccc2)CC1 | -46.5
59 | O=C(COC(=O)c1ccccc1Br)NCc1ccccc1 | 11.1
60 | O=C(CSc1nc2ccccc2o1)N1CCN(C(=O)c2ccco2)CC1 | -10.1
61 | CCCOc1ccc(C2NC(=O)NC(c3ccccc3)=C2C(C)=O)cc1OCC (centres unmarked) | 2.07
62 | C/C(CC(=O)NC1CCCCC1)=N\NC(=O)Cc1ccc(-c2ccccc2)cc1 | 3.98
63 | CCCc1cc(=O)[nH]c(Nc2ccc(OC)c(Cl)c2)n1 | 7.29
64 | CSc1ccc(CNC(C)C(O)c2ccccc2)cc1.Cl (centres unmarked) | -12.5
65 | Cc1ccc(S(=O)(=O)CCC(=O)Nc2ccccc2C)cc1 | 13.2
66 | CCOc1cc(N2CCOCC2)c(OCC)cc1NC(=O)Cc1cn2ccsc2n1 | 10.1
67 | COc1ccccc1N1CCN(C(=O)c2oc3ccc(F)cc3c2C)CC1 | 11.2
68 | O=c1[nH]c(SCc2ccc(F)cc2)nc2c1cnn2-c1ccc(F)cc1 | 14.8
69 | CCN(CC)S(=O)(=O)c1ccc(Oc2ccccc2OC)cc1 | 9.64

Row | SMILES | hERG current change (%, negative = inhibition) at 1uM [%]
70 | CN(C(=O)COc1nnc(-c2cccs2)c(-c2cccs2)n1)c1ccccc1 | 5.68
71 | CCOC(=O)CC(NC(=O)c1cc2cc(Cl)cc(Cl)c2oc1=O)c1cccc([N+](=O)[O-])c1 (centres unmarked) | -3.81
72 | O=C(Cn1cnc2c(nnn2-c2ccc(F)cc2)c1=O)NCC1CCCO1 (centres unmarked) | 19.1
73 | CC(O)Cn1c(N2CCCC2)nc2c1c(=O)[nH]c(=O)n2C (centres unmarked) | 13.4
74 | CCOc1ccc(Nc2ccc(C(=O)O)cc2[N+](=O)[O-])cc1 | 15
75 | Cc1ccc(C(=O)NCCNC(=O)Cc2ccccc2)cn1 | 12.9
76 | O=c1c([N+](=O)[O-])c(NCCN2CCCCCC2)c2ccccc2n1-c1ccccc1 | 8.01
77 | CCCC(=O)Nc1nn(C)c2nc3c(C)cccc3cc12 | 2.08
78 | c1ccc(-n2ncc3cccnc32)cc1 | 8.57
79 | Cc1ccc(-c2nc(CN(C)C)cc(CN(C)C)c2O)cc1.Cl | 2.81
80 | CC(C)CNS(=O)(=O)c1ccccc1C(=O)N1CCCCC1 | 2.36
81 | C=CC[N+]1(C)CC[C@]23c4c5ccc(O)c4O[C@H]2C(=O)CC[C@@]3(O)[C@H]1C5.[I-] (some centres unmarked) | 15.1
82 | CCn1c(=O)c(C(=O)NNC(=O)c2ccccc2F)c(O)c2ccccc21 | 10.7
83 | CC1(C)CC(=O)C2=C(C1)OC(=O)C2(NC(=O)c1cccs1)C(F)(F)F (centres unmarked) | 7.69
84 | O=C(COc1ccc([N+](=O)[O-])cc1)Nc1ccc2c(c1)CCC2 | 1.22
85 | c1ccc(CCNc2ccc3nncn3n2)cc1 | 9.46
86 | COc1cc(SC)ccc1C(=O)NCCOc1ccc(C)c(C)c1 | 4.17
87 | CC1(C)CC(=O)C(C2C3=C(CC(C)(C)CC3=O)OC3=C2C(=O)CC(C)(C)C3)=C(O)C1 | 11.6
88 | COc1cccc(C(=O)Nc2cccc(NC(=O)c3cccs3)c2)c1 | 7.99
89 | O=C(COc1ccccc1F)Nc1c2c(nn1-c1ccccc1)CS(=O)(=O)C2 | -5.15
